Measured values as given in the supplement of paper PMC8728848.
The other results are listed elsewhere or left out.

What was measured:
Test in all cases: glycan array binding signal (z-score within array); higher = stronger binding
Settings in all cases: glycan notation: IUPAC condensed, linker removed
[1] = molecular target: Fuc(a1-2)Gal(b1-4)GlcNAc(b1-3)Gal(b1-4)GlcNAc
In short: (§1)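 Columns mapping to the same glycan were averaged after glycan names were converted to IUPAC-condensed notation. The data come from 3228 arrays in the Consortium for Functional Glycomics database, limited to those with an available protein sequence. Binding is reported as a within-array Z-score averaged across arrays of one protein sequence and across linkers.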

[2] = molecular target: Fuc(a1-2)Gal(b1-4)GlcNAc(b1-3)Gal(b1-4)GlcNAc(b1-2)Man(a1-3)[Fuc(a1-2)Gal(b1-4)GlcNAc(b1-3)Gal(b1-4)GlcNAc(b1-2)Man(a1-6)]Man(b1-4)GlcNAc(b1-4)GlcNAc
In short: as §1

[3] = molecular target: Fuc(a1-2)Gal(b1-4)GlcNAc(b1-3)Gal(b1-4)GlcNAc(b1-3)Gal(b1-4)GlcNAc
In short: as §1

[4] = molecular target: Fuc(a1-2)Gal(b1-4)GlcNAc(b1-3)GalNAc
In short: as §1

[5] = molecular target: Fuc(a1-2)Gal(b1-4)GlcNAc(b1-3)[Fuc(a1-2)Gal(b1-4)GlcNAc(b1-6)]GalNAc
In short: as §1

[6] = molecular target: Fuc(a1-2)Gal(b1-4)GlcNAc(b1-3)[Fuc(a1-3)[Gal(b1-4)]GlcNAc(b1-6)]Gal(b1-4)Glc
In short: as §1

[7] = molecular target: Fuc(a1-2)Gal(b1-4)GlcNAc(b1-6)GalNAc
In short: as §1

[8] = molecular target: Fuc(a1-2)Gal(b1-4)GlcNAc6S
In short: as §1

[9] = molecular target: Fuc(a1-2)Gal(b1-4)[Fuc(a1-3)]GalNAc(b1-3)Gal(b1-4)[Fuc(a1-3)]GlcNAc
In short: as §1

[10] = molecular target: Fuc(a1-2)Gal(b1-4)[Fuc(a1-3)]GalNAc(b1-3)Gal(b1-4)[Fuc(a1-3)]GlcNAc(b1-3)Gal(b1-4)[Fuc(a1-3)]GalNAc
In short: as §1

[11] = molecular target: Fuc(a1-2)Gal(b1-4)[Fuc(a1-3)]GlcNAc
In short: as §1

[12] = molecular target: Fuc(a1-2)Gal(b1-4)[Fuc(a1-3)]GlcNAc(b1-2)Man(a1-3)[Fuc(a1-2)Gal(b1-4)[Fuc(a1-3)]GlcNAc(b1-2)Man(a1-6)]Man(b1-4)GlcNAc(b1-4)[Fuc(a1-6)]GlcNAc
In short: as §1

[13] = molecular target: Fuc(a1-2)Gal(b1-4)[Fuc(a1-3)]GlcNAc(b1-2)[Fuc(a1-2)Gal(b1-4)[Fuc(a1-3)]GlcNAc(b1-4)]Man(a1-3)[Fuc(a1-2)Gal(b1-4)[Fuc(a1-3)]GlcNAc(b1-2)Man(a1-6)]Man(b1-4)GlcNAc(b1-4)GlcNAc
In short: as §1

[14] = molecular target: Fuc(a1-2)Gal(b1-4)[Fuc(a1-3)]GlcNAc(b1-3)Gal(b1-4)[Fuc(a1-3)]GlcNAc
In short: as §1

[15] = molecular target: Fuc(a1-2)Gal(b1-4)[Fuc(a1-3)]GlcNAc(b1-3)Gal(b1-4)[Fuc(a1-3)]GlcNAc(b1-3)Gal(b1-4)[Fuc(a1-3)]GlcNAc
In short: as §1

[16] = molecular target: Fuc(a1-2)Gal(b1-4)[Fuc(a1-3)]GlcNAc(b1-3)GalNAc
In short: as §1

[17] = molecular target: Fuc(a1-2)Gal(b1-4)[Fuc(a1-3)]GlcNAc(b1-3)[Neu5Ac(a2-6)Gal(b1-4)GlcNAc(b1-6)]Gal(b1-4)Glc
In short: as §1

[18] = molecular target: Fuc(a1-2)Gal3S(b1-4)GlcNAc
In short: as §1

[19] = molecular target: Fuc(a1-2)Gal6S(b1-3)GlcNAc
In short: as §1

[20] = molecular target: Fuc(a1-2)Gal6S(b1-3)GlcNAc6S
In short: as §1

Fuc(a1-2)Gal6S(b1-4)Glc = molecular target: Fuc(a1-2)Gal6S(b1-4)Glc
In short: as §1

[21] = molecular target: Fuc(a1-2)Gal6S(b1-4)Glc6S
In short: as §1

[22] = molecular target: Fuc(a1-2)Gal6S(b1-4)GlcNAc
In short: as §1

Fuc(a1-2)GlcNAc = molecular target: Fuc(a1-2)GlcNAc
In short: as §1

Fuc(a1-2)[Gal(a1-3)]Gal = molecular target: Fuc(a1-2)[Gal(a1-3)]Gal
In short: as §1

[23] = molecular target: Fuc(a1-2)[Gal(a1-3)]Gal(b1-3)GalNAc
In short: as §1

[24] = molecular target: Fuc(a1-2)[Gal(a1-3)]Gal(b1-3)GalNAc(b1-3)Gal(a1-4)Gal(b1-4)Glc
In short: as §1

[25] = molecular target: Fuc(a1-2)[Gal(a1-3)]Gal(b1-3)GlcNAc
In short: as §1

[26] = molecular target: Fuc(a1-2)[Gal(a1-3)]Gal(b1-3)GlcNAc(b1-2)Man(a1-3)[Fuc(a1-2)[Gal(a1-3)]Gal(b1-3)GlcNAc(b1-2)Man(a1-6)]Man(b1-4)GlcNAc(b1-4)GlcNAc
In short: as §1

[27] = molecular target: Fuc(a1-2)[Gal(a1-3)]Gal(b1-3)GlcNAc(b1-2)Man(a1-3)[Fuc(a1-2)[Gal(a1-3)]Gal(b1-3)GlcNAc(b1-2)Man(a1-6)]Man(b1-4)GlcNAc(b1-4)[Fuc(a1-6)]GlcNAc
In short: as §1

B1: Epa7 (Candida glabrata), Q6DTM6_CANGB (protein)
chain: MGSSHHHHHHSSGLVPRGSHMKDDYSSFLSNNNLGWTDPTEFPLGCSPNVTTPKNGLSMELYSYDLRKNGSYPCWDAAYLDPNYPRTGYKSHRLLAKVDGVTGNINFYYHATKGCTPEIDHLPASYNYPKPLTMTNFTMLLYGYFKPKVTGYHTFTISADDLLFVNFGAGNAFDCCKRESSADDFGNYQAYAVWGSQTAKDDLTVHLDAGLYYPIRIFFNNREYDAELSLTLKTESDSNPVIDFSDYFYSFDDTKDGCPGLVSYDTS
[1]
  glycan array binding signal (z-score): -0.258
[2]
  glycan array binding signal (z-score): -0.201
[3]
  glycan array binding signal (z-score): -0.253
[4]
  glycan array binding signal (z-score): -0.166
[5]
  glycan array binding signal (z-score): -0.209
[6]
  glycan array binding signal (z-score): -0.221
[7]
  glycan array binding signal (z-score): -0.188
[8]
  glycan array binding signal (z-score): -0.254
[9]
  glycan array binding signal (z-score): -0.284
[10]
  glycan array binding signal (z-score): -0.281
[11]
  glycan array binding signal (z-score): -0.255
[12]
  glycan array binding signal (z-score): -0.197
[13]
  glycan array binding signal (z-score): -0.125
[14]
  glycan array binding signal (z-score): -0.236
[15]
  glycan array binding signal (z-score): -0.231
[16]
  glycan array binding signal (z-score): -0.027
[17]
  glycan array binding signal (z-score): -0.135
[18]
  glycan array binding signal (z-score): -0.217
[19]
  glycan array binding signal (z-score): -0.219
[20]
  glycan array binding signal (z-score): -0.195
Fuc(a1-2)Gal6S(b1-4)Glc
  glycan array binding signal (z-score): -0.259
[21]
  glycan array binding signal (z-score): -0.247
[22]
  glycan array binding signal (z-score): -0.285
Fuc(a1-2)GlcNAc
  glycan array binding signal (z-score): -0.263
Fuc(a1-2)[Gal(a1-3)]Gal
  glycan array binding signal (z-score): -0.213
[23]
  glycan array binding signal (z-score): -0.226
[24]
  glycan array binding signal (z-score): -0.218
[25]
  glycan array binding signal (z-score): -0.244
[26]
  glycan array binding signal (z-score): -0.23
[27]
  glycan array binding signal (z-score): -0.228
